{"source": "patent US6420157B1", "about": "“Zymogen activation system” (Ortho-McNeil Pharmaceutical, Inc., priority 1999, dated 2002)", "key": {"[1]": {"experiment": "Chromogenic amidolytic assay, release of pNA from H-D-Pro-HHT-Arg-pNA", "assay_type": "biochemical", "details": "EK-activated protease; substrate 500 uM; pH 7.8; 37° C.; 120 minutes", "method": "(§1) Cells were lysed on ice in 20 mM Tris (pH7.4), 150 mM NaCl, 1% Triton X-100, 1 mM EDTA, 1 mM EGTA, 1 mM PMSF, leupeptin (1 μg/ml), and pepstatin (1 μg/ml). Cell lysates were mixed with anti-FLAG M2 affinity gel (Eastman Kodak Co., New Haven, Conn.) and bound at 4° C. for 3 hours with gentle rotation. The zymogen-bound resin was washed 3 times with TBS buffer (50 mM Tris-HCl, 150 mM NaCl at a final pH of 7.5), and eluted by competition with FLAG peptide (100 μg/ml) in TBS buffer. The eluted zymogen was dialyzed overnight against TBS in Spectra/Por membrane (MWCO: 12,000-14,000) (Spectra Medical Industries, Inc., Huston, Tex.). […] Eluted protein concentration was determined by a Micro BCA Kit (Pierce, Rockford, Ill.) using bovine serum albumin as a standard. Amidolytic activities of the activated protease was monitored by release of para-nitroaniline (pNA) from the synthetic substrates indicated in Table 2. […] Release of pNA was measured over 120 minutes at 37° C. on a micro-plate reader (Molecular Devices, Menlo Park, Calif.) with a 405 nm absorbance filter. The initial reaction rates (Vmax, mOD/min) were determined from plots of absorbance versus time using Softmax (Molecular Devices, Menlo Park, Calif.). […] No measurable chromogenic amidolytic activity was detected with the purified unactivated zymogens. […]"}, "[2]": {"experiment": "Chromogenic amidolytic assay, release of pNA from H-D-Lys(CBO)-Pro-Arg-pNA", "assay_type": "biochemical", "details": "EK-activated protease; substrate 500 uM; pH 7.8; 37° C.; 120 minutes", "method": "as §1"}}, "data": [{"molecule": "CFEK2-Prot.F-6XHIS: recombinant human protease F catalytic domain in a zymogen activation construct; elsewhere named PFEK2-protease F-6XHIS (SEQ.ID.NO.:53) (protein) MAFLWLLSCWALLGTTFGCGVPDYKDDDDAAALAAPFDDDDKIVGGYALELGRWPWQGSLRLWDSHVCGVSLLSHRWALTAAHCFETYSDLSDPSGWMVQFGQLTSMPSFWSLQAYYNRYFVSNIYLSPRYLGNSPYDIALVKLSAPVTYTKHIQPICLQASTFEFENRTDCWVTGWGYIKEDEALPSPHTLQEVQVAIINNSMCNHLFLKYSFRKDIFGDMVCAGNAQGGKDACFGDSGGPLACNKNGLWYQIGVVSWGVGCGRPNRPGVYTNISHHFEWIQKLMAQSGMSQPDPSWSRHHHHHH", "values": [{"measurement": "specific activity, H-D-Pro-HHT-Arg-pNA", "setting": "[1]", "result": "0.016 nmole pNA produced /min/ug protein"}, {"measurement": "specific activity, H-D-Lys(CBO)-Pro-Arg-pNA", "setting": "[2]", "result": "0.045 nmole pNA produced /min/ug protein"}]}]}
